# The supplement of paper PMC11417369
# Some of the results follow.
# Tested on: PF3D7_0420300 AP2 domain 1 (GST-tagged)
# Assay: gcPBM binding intensity (ln(normalized median fluorescence intensity)); higher = stronger DNA binding
# How it was run: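 DNA-binding domains from P. falciparum, fused to GST and produced in E. coli, were put on an Agilent 4 × 180k double-stranded probe array for 1 h in 1× PBS holding 1% milk, 0.2 mg/ml BSA, 0.5% salmon testes DNA and 0.03% Triton X-100. Probes were primer-extended, 36 bp long and drawn from intergenic genomic regions, with negative controls included. After Alexa488 anti-GST antibody detection and a 488 nm scan, binding intensity was set as the highest Masliner-normalised natural-log median intensity across replicate spots of either probe orientation.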
row,Sequence,gcPBM binding intensity (ln)
1,ATATTTTTTAATTTTACACACCATATAAAATAATTC [CACACA_site7339],9.37
2,ATCAATACTTTTTTGGGTACATAAATATATATATAT [XGTACX_site8436],9.28
3,TGTCATGATACATACACACACATACCCATACCCATA [CACACA_site5211],9.88
4,AAATAAAGCATGTGCTGTACAAACGAAATATTTAAG [XGTACX_site3146],9.62
5,TTTATGTGTATTAAGTGTACACATATAGTGTATTTT [XGTACX_site999],9.23
6,ATATATAAGGAAAAAAGTACTTATATTTTTTTTTTG [XGTACX_site1909],9
7,AACAAATGTTAAATGTTTAAGGAGAAAATAAAGACA [CACACA_negctrl_site1163],9.34
8,GAAAACATAAAAATATGTACTTAAAATATATTTTGT [XGTACX_site868],9.17
9,AAAACGAAACATCTGTGTATAAGTCTATATTATTAT [XGTACX_negctrl_site301],9.38
10,GCTTCTTAATATCATACACACATAGATATATTTATA [CACACA_site5676],9.69
11,GGAGACTTTGTATTGGGTACGTATTTCAATGCATGT [XGTACX_site1596],9.19
12,CATACATACATACATACACACACATATATATATATA [CACACA_site8593],9.63
13,AAACCTTTACATCGTTTGCACTATATTGATATGTGT [GTGCAC_site9686],9.46
14,CTTCCTATATTTTACTGTACTTTTTTTTTTTTTTTT [XGTACX_site4016],9.43
15,TTTTTTAACAAAAATAAAACATAACTGAATTAAAAG [GTGCAC_negctrl_site244],9.07
16,ACGAATTAAATTTGCTGTACCAAAAAGAAAACAATA [XGTACX_site5511],9.24
17,TTTTTTTTTTTTCATTGTACTCTTAAAAATTCAACT [XGTACX_site3154],8.88
18,TAAAATGTACAGGACGCACACACATATATATATATA [CACACA_site3673],9.67
19,AACAACAACTAATATGCACACATTTAAAAACAAAAT [CACACA_site2440],9.78
20,TATTTTTTTTTTTTTTTACACACTATAGGGAAAAAA [CACACA_site8583],9.06
21,ATTAAAATTTAAAATACACACACATATATATAATAT [CACACA_site8612],9.94
22,TTATAATGAAATATATTCTTATTCTTTTTTTTTTTT [GTGCAC_negctrl_site384],8.91
23,TCATTTTAAAAAAATAGTACTTTAAGAAACTTTTAT [XGTACX_site602],8.63

row,Sequence,gcPBM binding intensity (ln)
1,TTTTTTTTTTTTTTTTTTTATGTATACATATTTATA [TGCATGCA_negctrl_site234],8.84
2,GATATTCTATAAAAAAGTACAAATATTTTAAAAAAT [XGTACX_site2177],9.09
3,AGCATTAATTATTTCACACATATATATATATATATA [CACACA_site4889],9.4
4,TAAATCCTTTACAACACACACACAAAAAAAAAAAAA [CACACA_site643],9.83
5,TGTTTTTATTTATTCTGTACTGAAGAGAGTTATATA [XGTACX_site8859],9.1
6,TTTAAATACAGACATACACACATACACCCACATATA [CACACA_site8078],9.81
7,TAAGAAATAAATAGTACACACATAGACACAGACACA [CACACA_site4934],9.96
8,ATATAAATTTTTTATGAACACACAAATACAGACACT [CACACA_site8848],9.69
9,GTATATGAGAAAAAAAGTACATGCACAAAATGTATA [XGTACX_site6441],9.34
10,ATAATTAAAAAAAATTGTACATATAAATAGAAGATT [XGTACX_site230],9.39
11,AGATTAAAATAATATAAACACACATATACTTTTTTC [CACACA_site8085],9.49
12,AAAAAAAAAAGAATAGCACACACACCGATATAAATA [CACACA_site8111],10.1
13,TAGGTATGCTCTCAATGTACATAAAATAATTTTACT [XGTACX_site6556],9.15
14,ATCAGTGATTAGGTTATATATAAAAATGAACTAATA [GTGCAC_negctrl_site647],9.18
15,ATATTCATGTTGATATGTACTTATTCTATATTGAAT [XGTACX_site8347],9.28
16,TATATATATATATATATACACACTTGTGCAGAATAT [CACACA_site2216],9.39
17,ATATTTATATATAGTAGTACTTTCAATAATTTAAAT [XGTACX_site7276],9.02
18,AATACAAGAACTGACACACATACATACTACATTTTA [CACACA_site2829],9.75
19,TCTTAAAATATATAGGTGCAAAAAAAAAAAAAAAAA,8.65
20,AAAAAATTAAAAATACGTACATATATACATATATAT [XGTACX_site4621],9.31
21,TATGATATTTATATGCGTACTGAAGTATGCCTATTT [XGTACX_site6133],9.41
22,AAAGAAAGAAGACACACACACATATATAAATATCAA [CACACA_site7715],10.1
23,AGTTTTTATAAAAATAGTACATATTTATTAATCTGT [XGTACX_site5881],9.23

row,Sequence,gcPBM binding intensity (ln)
1,TGCAGTCTGGAGAAACGTACACAGTATCTGGTAACC [XGTACX_site2543],9.21
2,TTTTGTGCTTAAAAAAGTACAAAATATAAAAAAAAT [XGTACX_site7876],9.06
3,CCCACAGACGGACACACACACACACCGACACATATA [CACACA_site4356],10.2
4,AAAATTGAACCTGACAAGGTATTTTATTATTTATTA [TGCATGCA_negctrl_site181],9.04
5,TTCTATTTTAATATCTGTACATAATAAAGATCCATT [XGTACX_site1142],8.99
6,ATATGACATAAAACATGTACATGTTCATAAATATAT [XGTACX_site1923],9.34
7,TGAGTACACAATAATACATGCAATTCCTATGAATAT [TGCATGCA_site851],9.32
8,ATAAATATTAAAAGTACACACAGATACACTAATTAT [CACACA_site1808],9.75
9,ATTTACATAATAAAATGTACATTTATAAATATTATA [XGTACX_site1901],9.13
10,TACACTTTTTATGAAGTGCATGTATAGCTCTTAAAA [GTGCAC_site9595],8.78
11,CATTATTCATTTTGGATGCACTGACAGAAAAATGGT,9.26
12,ATGCTCAGGAAAACATGTACAAAATTATTTGTTATA [XGTACX_site4306],9.11
13,TTACAAGTAAAAGGTACACACATTATAAATACAAAT [CACACA_site4752],9.82
14,AAGAAAGACATTACGTGTACCAAACAACCTACCAAC [XGTACX_site4219],9.63
15,AAAATTAAACTCACACCACACACAAAAAAAAAAAAA [CACACA_site8131],9.64
16,TGTTTTATCTTATATGCACACGATAAAAAAAAAAAA [CACACA_site2674],8.83
17,ATGTATATGTCTATATGTACTTATATTTTATTTTTT [XGTACX_site5902],9.37
18,ACATAAATATAAACGTGTACATATATAAATATATAT [XGTACX_site7293],9.37
19,CATATATAAAAAAACACACACATATATATATATATA [CACACA_site1195],9.63
20,ATTTTTTTTTTTTATAGTGGATCCACATTTGCCATT [CACACA_negctrl_site1284],9.27
21,ATATATTTTAATTGTTGTACATATTAAATAAATAGG [XGTACX_site2311],8.88
22,TATATTTTATATATGGTGCAACTTTTATTTAAATAA,8.77
23,ATTTTTTTTTTTTTTTTTTTTTTATTCTTGTAATCT [CACACA_negctrl_site1039],9.23

row,Sequence,gcPBM binding intensity (ln)
1,ATATAATAATAAAGACGTACAAATGTATATATATAC [XGTACX_site3123],9.62
2,CCTTTTTATCTTTTTGTGCACAGACCTTTTTTAAAT,9.38
3,ATGTAAGTTGTGCATTCACACACATATATATATATA [CACACA_site9086],9.52
4,AAAAAAAAAAAAAACATACACACAATAAAATAGGGG [CACACA_site2398],10.1
5,AACTTAAAAAATAAATGTACATAAATATAAACATAT [XGTACX_site2987],9.36
6,ATATATATATATATAACACACGCAAAAAAATTAAAT [CACACA_site8395],9.66
7,AAAAAAAAAAAAATCACACATAATATAGAATATGTA [CACACA_site4993],9.1
8,TATTTAAATTTTAAGTGTACATATTTATTTATATCT [XGTACX_site6545],8.93
9,TCACTATAATAATTTACACACATTTTAAGAAAATGT [CACACA_site3530],9.43
10,AAAATGAATAAAAATACACACATATCTGTTATTCTC [CACACA_site5474],9.45
11,GAATATTAATTCATACGTACTTATATATAAGTATAT [XGTACX_site3707],9.17
12,TATAAAAATGGGCACACACACACATATATATATTTA [CACACA_site1527],10.1
13,TTATAATAATATAATACATGCATATATATTTAAATA [TGCATGCA_site903],9.1
14,AATACACTAAACAAAAGTACAAAAATATTCTACAAA [XGTACX_site5162],9.38
15,ATGGCCTCATTTGGGACACACAACATAAAATATATA [CACACA_site753],9.31
16,ATAAACATATAAAAAGTGCATATTCATATATCTACT,9.36
17,TGTTAATTATAAATTTGTACTTATTTTTACAAAATA [XGTACX_site6598],9.02
18,AAATATATTTTATGTACACACAAAATTAAGGGATAT [CACACA_site4881],9.56
19,CATTTTTTATTTCCTTGTACGAATAAAATATATTTA [XGTACX_site6844],9
20,AATTTAATATAATGCACACATAAAACAAAAACAAAA [CACACA_site529],9.71
21,TATTATCGTTCTCATACACACAAAATATACATACAC [CACACA_site2643],9.86
